According to the supplement of paper PMC3334620:
In all, about 33,000 sequences were measured (“E-score (-0.5 to 0.5)”: median about -0.016, highest 2% from about 0.32 on). Some of the results follow.

molecular target: T1, Stp1 (UniProt B3LFK1); assay: PBM E-score (8-mer binding enrichment) (E-score (-0.5 to 0.5)); higher = stronger / more preferred TF binding; most listed sequences are background and not binding sites; conditions: protein concentration: 200 nM; construct: GST-full length
T1 sequence: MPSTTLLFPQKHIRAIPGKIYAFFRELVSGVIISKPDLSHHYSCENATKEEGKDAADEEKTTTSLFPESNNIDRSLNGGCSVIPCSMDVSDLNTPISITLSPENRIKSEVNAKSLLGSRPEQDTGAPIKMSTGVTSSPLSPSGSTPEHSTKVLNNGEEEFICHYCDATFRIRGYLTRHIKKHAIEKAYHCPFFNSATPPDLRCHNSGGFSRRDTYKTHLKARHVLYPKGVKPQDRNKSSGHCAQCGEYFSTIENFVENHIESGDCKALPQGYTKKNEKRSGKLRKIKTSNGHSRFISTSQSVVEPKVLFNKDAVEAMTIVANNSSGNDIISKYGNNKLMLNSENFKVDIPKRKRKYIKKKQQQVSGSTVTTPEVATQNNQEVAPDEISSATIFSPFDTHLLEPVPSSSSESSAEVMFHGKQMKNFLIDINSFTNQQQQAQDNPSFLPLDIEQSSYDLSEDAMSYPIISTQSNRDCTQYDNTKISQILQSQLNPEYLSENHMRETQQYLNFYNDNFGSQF
Method in brief: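 Yeast transcription factors, full-length or as DNA-binding domains, were expressed with a GST tag using PURExpress in vitro transcription/translation. At about 100-200 nM they were applied to universal all-10-mer Agilent arrays, double-stranded by primer extension on fresh or once-stripped slides. Fluorescent anti-GST detected bound protein, and masliner normalised the scans. E-scores for ungapped eight-base words, pooled with reverse complements, came from the Universal PBM Analysis Suite.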

Row | Sequence | PBM E-score
1 | GCGAGTTA | 0.104
2 | GACTTCGA | -0.0767
3 | ATAGTAAG | -0.016
4 | AGTCCGCC | -0.105
5 | CACGTACA | -0.192
6 | GCTCAGGA | -0.0645
7 | AAAGTGTT | 0.0647
8 | ACGAAGTA | -0.211
9 | CGTTTTAG | 0.0243
10 | GGACCACA | -0.0525
11 | AATGCGGT | -0.0107
12 | CCTCCAGA | 0.0135
13 | AGGCAGAT | -0.112
14 | AGGTTCCA | -0.203
15 | ACTCGGGG | -0.233
16 | CGGCAAAC | 0.301
17 | ACATCGCT | -0.129
18 | GGACTGTA | -0.041
19 | AGTGTTGC | 0.0625
20 | CAACGGCG | 0.429
21 | AAGAGAAG | -0.0838
22 | AGCGTTGC | 0.165
23 | AGTCAGAG | -0.0983
24 | TAATCGCA | 0.0733
25 | TAAATGCA | 0.187

Row | Sequence | PBM E-score
26 | GGAGTCCA | -0.0786
27 | TAATTAAA | -0.0674
28 | ATCATTGG | -0.167
29 | CATCCCTC | -0.0945
30 | ATACACCC | 0.0561
31 | TGAACGAA | -0.0161
32 | CAAGTGAA | 0.00842
33 | AATATGTA | 0.154
34 | AGGTTCGC | -0.134
35 | ACGACAGG | 0.0263
36 | ACTCCGCC | -0.275
37 | ACTCACCC | 0.0941
38 | TAGAACGA | 0.145
39 | CGATTCGC | 0.179
40 | GCCGACGA | -0.0419
41 | ACGTAGAC | -0.203
42 | CTGAGAGC | -0.0138
43 | AGAGGTCC | 0.00428
44 | CGAACTAC | -0.031
45 | ACTATAAC | -0.0133
46 | GATTGCAA | 0.125
47 | ACAGTAGC | -0.174
48 | AGATGCGC | 0.0708
49 | CTGACATA | 0.0932
50 | ACTATTCG | -0.00555

Row | Sequence | PBM E-score
51 | CGGCACTA | 0.446
52 | AAATCTTA | 0.0712
53 | CTTTCGTC | -0.107
54 | CCGCATAA | 0.255
55 | CCAAGAAG | 0.0504
56 | AGGACACT | -0.162
57 | TACTAGGA | -0.15
58 | CCAATCGG | 0.00216
59 | ACCGAGCC | 0.177
60 | CCCGGTAG | -0.0861
61 | CTCATCCA | -0.0965
62 | TTGGGAAA | 0.133
63 | ATCTTACA | 0.0887
64 | TAATATCA | 0.245
65 | CGTAAAGC | -0.151
66 | AGAAAAGC | 0.0215
67 | GGCGCACA | 0.0949
68 | GACGAGAA | 0.0215
69 | TACAATAA | 0.228
70 | GGGACGAC | -0.185
71 | AGCGACGA | 0.0002
72 | TACCATAA | 0.0798
73 | GTGCCACA | 0.199
74 | ATGTTGCA | -0.0141
75 | AAAGGTCA | -0.269

Row | Sequence | PBM E-score
76 | GGTCGTTA | -0.0438
77 | CCCCGCTA | 0.02
78 | GGGTAGCA | -0.15
79 | TCACCAGA | -0.169
80 | CCTAACCA | -0.0397
81 | AGAGACCG | -0.185
82 | ATTGTCAC | -0.00565
83 | GCCCAATA | 0.0719
84 | CTTGGAGC | -0.0465
85 | GCACCTCC | -0.0763
86 | GCCGTATA | 0.475
87 | CATGGAGC | -0.0867
88 | AAAGCGGA | 0.0227
89 | CACTGCCC | -0.071
90 | AGGCGGCG | 0.391
91 | CATCCGAA | 0.0626
92 | CGGCCGTC | 0.16
93 | AAGAGCGC | 0.12
94 | ACCCCCGG | -0.439
95 | GGAACACA | -0.0655
96 | ACTATCCC | -0.244
97 | CGGGTAAG | -0.215
98 | CGTTAAAA | -0.129
99 | CCCAGTAC | -0.322
100 | CCTGCATA | -0.107

Row | Sequence | PBM E-score
101 | AGGACTTA | -0.277
102 | AATGGGTA | -0.00846
103 | GCCCCTCC | -0.0987
104 | CGCACAGC | 0.166
105 | CGCGGATC | 0.111
106 | AACGGTAT | -0.0397
107 | AGCTGAAC | -0.29
108 | AAATCTGG | 0.0761
109 | GGTAAACA | 0.123
110 | AGTGAAGC | 0.00666
111 | AAGGGGGC | -0.273
112 | AATCGACC | -0.0501
113 | ATGGGGAA | -0.107
114 | GTGATCAC | -0.102
115 | AAGTAAGG | -0.0479
116 | TACTCGAA | 0.0143
117 | AAAGCATC | 0.0151
118 | AGTTCCCC | -0.14
119 | CACCAGTC | -0.243
120 | ATCGTAGG | -0.121
121 | GCGACACA | 0.103
122 | AGATTGCA | 0.019
123 | CCGGGCAA | -0.0318
124 | CGTAGATA | 0.0891
125 | ATATAATG | 0.00952

Row | Sequence | PBM E-score
126 | ACTGTGGG | -0.0787
127 | CGAGTGAC | -0.21
128 | CCCGCGTC | 0.16
129 | TCCTTTAA | -0.0837
130 | GAGTAGCC | -0.0857
131 | GTGTCGCA | -0.101
132 | GCGTTACC | -0.134
133 | CCGCGAGC | -0.106
134 | GGGAGACA | -0.346
135 | AATGTGCC | 0.323
136 | TAAGGTAA | 0.182
137 | GCTGCAGC | -0.0493
138 | GCGGATTA | 0.0482
139 | ACTTTGCT | -0.222
140 | CGGGTTAC | 0.09
141 | CAAGGGTG | -0.138
142 | GAGGTGTA | 0.0828
143 | CTACCGTC | -0.18
144 | CTAGAGAG | -0.215
145 | GGAACGAA | -0.0312
146 | ACCCCTTA | -0.169
147 | GTGTAAGA | -0.0215
148 | CTTCAGGC | 0.104
149 | CGCTAGAG | -0.0905
150 | AACGGATC | 0.163

Row | Sequence | PBM E-score
151 | CGATTAGC | -0.196
152 | ATCATTCA | 0.15
153 | AGACAACT | -0.0416
154 | CTGCGCGA | -0.132
155 | ATATGTGG | 0.126
156 | GCTTCGAA | 0.0728
157 | GAGAGAGA | -0.101
158 | CGTCATAC | 0.286
159 | AATTCGGC | 0.126
160 | GCCTTTAA | 0.121
161 | CACAAGTC | -0.169
162 | GGCCTGGA | -0.248
163 | ATGATAAT | 0.0876
164 | ATGCTCGA | -0.129
165 | CCGTCCCA | 0.111
166 | AATAATCG | 0.0574
167 | GCTCATAA | -0.0415
168 | ATCAGGTC | -0.114
169 | AGTGTCCC | -0.00868
170 | GATGGGTA | -0.0338
171 | AAAGTGGC | 0.0644
172 | TCTCTTAA | 0.0949
